Assay results: the supplement of paper PMC11125491
± gives the standard deviation of the averaged measurements. Growth of baker's yeast expressing single-residue variants of Pneumocystis jirovecii dihydrofolate reductase in 8.8 or 44 µM methotrexate (about 75% and 90% inhibition of the wild type). Selection coefficient per generation; 0 = like wild type, above 0 = less sensitive, below 0 = more sensitive or loss of function. No active / inactive call per row; the paper calls resistant above 0.220 (8.8 µM) or 0.243 (44 µM) together with a significance test. At 44 µM about 15% of codons end with one read or none, so the lowest values are floors (replicate rank correlation 0.74; 0.94 at 8.8 µM).

B1: UniProt A0EPZ9; numbered along this chain (parent)
chain: MDWQKSLTLIVALTLSRGIGLKNDLPWKLKSDMMFFSRVTSGLLVTRSTGQMNVVLMGRKTWESLPAHSRPLKNRINVVISRQEVLDLGGGAYHARSLDDALALLSQIYDSTSKIQLNRVFVIGGGELCKAAMEHSRLNRIIATVIHNEVDCDVFFPIDFRSSQSCLPWRKQDHSVLEAWVGSKVPQGKINENGFIYEFEMWIRDI

Variants of: B1
Test: selection coefficient against synonymous wild-type codons (log2 per generation); higher = faster growth than wild type
Conditions: with Saccharomyces cerevisiae carrying the variant on a plasmid
Description: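 Pooled growth of yeast carrying single-residue variants of P. jirovecii dihydrofolate reductase (own DFR1 gene intact), two passages at 30 °C, three cultures, sequenced before and after. Codons with under 15 starting reads are left out; codons of one change are averaged.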

Row | Variant | selection coefficient against synonymous wild-type codons (log2) (methotrexate 8.8 µM) | selection coefficient against synonymous wild-type codons (log2) (methotrexate 44 µM)
1 | Y109K | 0.00224 ± 0.05 | -0.101 ± 0.14
2 | Y109L | 0.112 ± 0.033 | 0.156 ± 0.04
3 | Y109M | 0.125 ± 0.066 | 0.357 ± 0.36
4 | Y109N | 0.158 ± 0.051 | 0.209 ± 0.066
5 | Y109P | -0.126 ± 0.048 | -0.0599 ± 0.12
6 | Y109Q | 0.169 ± 0.017 | 0.187 ± 0.04
7 | Y109R | -0.0492 ± 0.044 | -0.0348 ± 0.12
8 | Y109S | 0.136 ± 0.056 | 0.111 ± 0.14
9 | Y109T | 0.00879 ± 0.03 | -0.00112 ± 0.08
10 | Y109V | 0.0576 ± 0.039 | 0.119 ± 0.099
11 | Y109W | -0.17 ± 0.0065 | -0.244 ± 0.098
12 | D110A | -0.166 ± 0.046 | -0.157 ± 0.12
13 | D110C | -0.159 ± 0.03 | 0.498 ± 0.14
14 | D110E | -0.0795 ± 0.018 | -0.049 ± 0.042
15 | D110G | -0.119 ± 0.026 | -0.0359 ± 0.076
16 | D110K | -0.0315 ± 0.14 | -0.261 ± 0.076
17 | D110L | -0.245 ± 0.042 | -0.107 ± 0.12
18 | D110M | -0.26 ± 0.047 | -0.244 ± 0.068
19 | D110Q | -0.121 ± 0.036 | -0.185 ± 0.19
20 | D110R | -0.224 ± 0.1 | 0.000768 ± 0.095
21 | D110S | -0.0646 ± 0.084 | 0.0392 ± 0.073
22 | D110T | -0.0683 ± 0.062 | -0.0816 ± 0.16
23 | D110V | -0.237 ± 0.05 | -0.183 ± 0.12

Row | Variant | selection coefficient against synonymous wild-type codons (log2) (methotrexate 8.8 µM) | selection coefficient against synonymous wild-type codons (log2) (methotrexate 44 µM)
24 | D110W | 0.207 ± 0.082 | 1.28 ± 0.1
25 | S111A | -0.0576 ± 0.021 | 0.14 ± 0.084
26 | S111C | -0.123 ± 0.017 | -0.198 ± 0.049
27 | S111D | 0.00522 ± 0.022 | 0.254 ± 0.11
28 | S111E | 0.211 ± 0.026 | 1.23 ± 0.14
29 | S111G | -0.0328 ± 0.019 | 0.0352 ± 0.011
30 | S111K | 0.0499 ± 0.03 | 0.117 ± 0.069
31 | S111L | -0.312 ± 0.15 | 0.0433 ± 0.055
32 | S111M | -0.29 ± 0.13 | -0.221 ± 0.044
33 | S111P | 0.00141 ± 0.041 | -0.0811 ± 0.14
34 | S111Q | -0.127 ± 0.13 | 0.0972 ± 0.17
35 | S111R | -0.0942 ± 0.062 | -0.109 ± 0.1
36 | S111T | -0.0714 ± 0.048 | -0.135 ± 0.095
37 | S111V | -0.166 ± 0.034 | -0.0963 ± 0.19
38 | S111W | -0.398 ± 0.025 | -0.238 ± 0.15
39 | S111Y | -0.226 ± 0.04 | -0.00109 ± 0.12
40 | T112A | -0.0732 ± 0.049 | -0.0408 ± 0.12
41 | T112C | -0.104 ± 0.094 | -0.13 ± 0.082
42 | T112D | 0.132 ± 0.023 | 0.146 ± 0.099
43 | T112E | 0.0776 ± 0.023 | 0.0883 ± 0.047
44 | T112G | 0.0231 ± 0.018 | 0.0644 ± 0.06
45 | T112I | -0.431 ± 0.27 | -0.0952 ± 0.085
46 | T112K | 0.0341 ± 0.047 | 0.04 ± 0.13

Row | Variant | selection coefficient against synonymous wild-type codons (log2) (methotrexate 8.8 µM) | selection coefficient against synonymous wild-type codons (log2) (methotrexate 44 µM)
47 | T112L | -0.3 ± 0.093 | -0.141 ± 0.17
48 | T112M | -0.222 ± 0.049 | -0.109 ± 0.067
49 | T112N | 0.127 ± 0.041 | 0.00214 ± 0.043
50 | T112P | -0.16 ± 0.033 | -0.127 ± 0.14
51 | T112Q | 0.0074 ± 0.045 | 0.0473 ± 0.065
52 | T112R | -0.1 ± 0.067 | -0.0609 ± 0.18
53 | T112S | -0.00107 ± 0.06 | 0.0468 ± 0.067
54 | T112V | -0.27 ± 0.047 | -0.192 ± 0.25
55 | T112W | -0.394 ± 0.12 | -0.383 ± 0.039
56 | T112Y | -0.335 ± 0.037 | -0.0736 ± 0.096
57 | S113A | -0.117 ± 0.033 | -0.13 ± 0.14
58 | S113C | -0.174 ± 0.015 | -0.129 ± 0.015
59 | S113D | -0.0175 ± 0.074 | 0.0566 ± 0.081
60 | S113E | -0.0347 ± 0.051 | -0.0334 ± 0.085
61 | S113F | -0.357 ± 0.016 | -0.27 ± 0.12
62 | S113G | -0.0749 ± 0.031 | -0.043 ± 0.096
63 | S113K | -0.0488 ± 0.03 | -0.131 ± 0.2
64 | S113L | -0.399 ± 0.091 | -0.136 ± 0.099
65 | S113M | -0.248 ± 0.0079 | -0.173 ± 0.058
66 | S113P | -0.0594 ± 0.083 | 0.116 ± 0.13
67 | S113Q | -0.0737 ± 0.065 | 0.0639 ± 0.027
68 | S113R | -0.21 ± 0.1 | -0.192 ± 0.11
69 | S113T | -0.101 ± 0.07 | -0.0384 ± 0.094

Row | Variant | selection coefficient against synonymous wild-type codons (log2) (methotrexate 8.8 µM) | selection coefficient against synonymous wild-type codons (log2) (methotrexate 44 µM)
70 | S113V | -0.358 ± 0.078 | -0.435 ± 0.086
71 | S113W | -0.523 ± 0.035 | -0.358 ± 0.31
72 | S113Y | -0.267 ± 0.26 | 0.288 ± 0.63
73 | K114A | -0.062 ± 0.051 | -0.0209 ± 0.17
74 | K114C | -0.251 ± 0.015 | 0.127 ± 0.17
75 | K114D | 0.0276 ± 0.12 | 0.0125 ± 0.16
76 | K114E | 0.0166 ± 0.032 | 0.0728 ± 0.05
77 | K114G | 0.0553 ± 0.033 | 0.121 ± 0.014
78 | K114L | -0.169 ± 0.052 | -0.114 ± 0.13
79 | K114M | -0.188 ± 0.024 | -0.095 ± 0.034
80 | K114N | 0.00334 ± 0.068 | 0.182 ± 0.05
81 | K114P | 0.0156 ± 0.013 | 0.0666 ± 0.15
82 | K114Q | -0.0463 ± 0.031 | -0.0623 ± 0.18
83 | K114R | -0.138 ± 0.04 | -0.0393 ± 0.18
84 | K114S | -0.0451 ± 0.022 | 0.0355 ± 0.094
85 | K114T | -0.106 ± 0.12 | 0.0321 ± 0.17
86 | K114V | -0.198 ± 0.075 | -0.213 ± 0.072
87 | I115A | -0.0642 ± 0.031 | -0.0809 ± 0.099
88 | I115E | 0.00623 ± 0.013 | -0.0265 ± 0.031
89 | I115F | -0.0738 ± 0.03 | 0.18 ± 0.24
90 | I115G | -0.0143 ± 0.072 | -0.0544 ± 0.099
91 | I115K | -0.0124 ± 0.028 | -0.0655 ± 0.066
92 | I115L | -0.125 ± 0.19 | -0.0697 ± 0.19

Row | Variant | selection coefficient against synonymous wild-type codons (log2) (methotrexate 8.8 µM) | selection coefficient against synonymous wild-type codons (log2) (methotrexate 44 µM)
93 | I115M | -0.0703 ± 0.029 | -0.0196 ± 0.036
94 | I115R | -0.169 ± 0.075 | -0.146 ± 0.16
95 | I115S | -0.178 ± 0.092 | 0.0406 ± 0.016
96 | I115T | -0.031 ± 0.051 | -0.132 ± 0.061
97 | I115V | 0.0236 ± 0.047 | 0.145 ± 0.1
98 | I115W | -0.231 ± 0.037 | -0.166 ± 0.12
99 | Q116A | -0.121 ± 0.053 | 0.0566 ± 0.19
100 | Q116C | -0.149 ± 0.076 | -0.0554 ± 0.12
101 | Q116E | -0.0459 ± 0.044 | -0.014 ± 0.024
102 | Q116G | -0.169 ± 0.036 | -0.166 ± 0.11
103 | Q116H | -0.0577 ± 0.063 | 0.0183 ± 0.083
104 | Q116I | -0.264 ± 0.1 | -0.0333 ± 0.083
105 | Q116K | -0.00903 ± 0.027 | 0.0718 ± 0.016
106 | Q116L | -0.268 ± 0.057 | -0.205 ± 0.15
107 | Q116M | -0.198 ± 0.059 | -0.256 ± 0.11
108 | Q116N | -0.014 ± 0.097 | 0.0319 ± 0.13
109 | Q116P | -0.0864 ± 0.048 | -0.0843 ± 0.11
110 | Q116R | -0.13 ± 0.034 | -0.134 ± 0.064
111 | Q116S | -0.0638 ± 0.052 | -0.0706 ± 0.11
112 | Q116T | -0.0697 ± 0.055 | -0.0486 ± 0.12
113 | Q116V | -0.211 ± 0.05 | -0.241 ± 0.09
114 | Q116W | -0.431 ± 0.098 | -0.33 ± 0.15
115 | L117A | -0.126 ± 0.021 | -0.108 ± 0.088
